Laboratory results: article PMC4336329 (PLoS ONE, 2015)
The whole screen tested about 310,000 compounds, of which about 14,000 (4.5%) showed an effect of 50% or more. The effect is printed as a negative number. The list shows a part of the results.

What follows are compounds tested against human ether-à-go-go-related gene (hERG) potassium channel (human, UniProt Q12809) (assay: primary screen, population patch clamp on CHO cells stably expressing hERG).
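Also: peak tail current of the secondary pulse compared with the same well before compound.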

human ether-à-go-go-related gene (hERG) potassium channel, sequence (Q12809 whole entry, looked up): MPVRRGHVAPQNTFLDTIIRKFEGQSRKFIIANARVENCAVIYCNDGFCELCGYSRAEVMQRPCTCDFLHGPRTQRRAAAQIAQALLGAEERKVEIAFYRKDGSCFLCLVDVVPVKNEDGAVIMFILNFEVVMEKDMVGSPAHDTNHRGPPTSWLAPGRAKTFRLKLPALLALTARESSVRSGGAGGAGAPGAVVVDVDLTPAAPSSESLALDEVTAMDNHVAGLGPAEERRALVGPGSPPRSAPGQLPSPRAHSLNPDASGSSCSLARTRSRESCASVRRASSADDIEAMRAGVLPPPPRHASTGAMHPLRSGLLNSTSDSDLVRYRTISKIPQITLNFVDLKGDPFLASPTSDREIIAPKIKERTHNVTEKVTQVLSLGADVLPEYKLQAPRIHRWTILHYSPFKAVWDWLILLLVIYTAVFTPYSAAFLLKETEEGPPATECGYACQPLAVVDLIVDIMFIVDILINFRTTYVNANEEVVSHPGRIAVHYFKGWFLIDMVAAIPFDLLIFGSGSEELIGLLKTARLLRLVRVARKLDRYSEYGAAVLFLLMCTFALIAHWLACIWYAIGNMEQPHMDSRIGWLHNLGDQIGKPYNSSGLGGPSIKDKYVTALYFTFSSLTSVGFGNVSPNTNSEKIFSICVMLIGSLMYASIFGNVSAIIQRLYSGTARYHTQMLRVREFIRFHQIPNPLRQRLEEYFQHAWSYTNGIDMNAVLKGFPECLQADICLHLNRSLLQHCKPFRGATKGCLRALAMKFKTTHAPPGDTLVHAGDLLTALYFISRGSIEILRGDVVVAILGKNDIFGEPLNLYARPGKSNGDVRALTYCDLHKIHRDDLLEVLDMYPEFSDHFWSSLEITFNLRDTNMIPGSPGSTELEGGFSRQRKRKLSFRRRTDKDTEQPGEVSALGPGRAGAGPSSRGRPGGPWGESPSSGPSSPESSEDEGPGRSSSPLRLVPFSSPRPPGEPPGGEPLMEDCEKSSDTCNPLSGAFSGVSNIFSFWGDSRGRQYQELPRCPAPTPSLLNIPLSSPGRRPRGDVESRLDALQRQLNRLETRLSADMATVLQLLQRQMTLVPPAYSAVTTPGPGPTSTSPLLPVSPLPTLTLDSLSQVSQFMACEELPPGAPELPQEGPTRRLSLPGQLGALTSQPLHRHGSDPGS

Point of comparison: `CCC(C)NC(=O)c1ccccc1NC(=O)Nc1ccccc1` (stereo not shown), “hERG current change (%, negative = inhibition) at 10uM” value 3.24%. Against it:
- C#CCOC(=O)CN1C(=O)c2cccc3cccc(c23)C1=O — lower, -0.379%
- COc1cc(-c2nc3ccc4ccccc4c3c3c2CCC3)cc(OC)c1O — lower, -5.42%
- O=C(NC(=C(Cl)Cl)P(=O)(c1ccccc1)c1ccccc1)c1ccccc1 — higher, 6.6%
- Cc1nn2c(COc3ccc(NC(=O)c4ccccc4)cc3)nnc2c2ccccc12 — higher, 4.38%
- CCOP(=O)(OCC)C(Nc1ccccn1)c1ccc(F)cc1 (stereo not shown) — higher, 5.13%
- O=C(c1ccc(F)cc1)N1CCN(Cc2ccccc2)CC1 — lower, 0.241%
- CCC(C)c1ccccc1OCC(=O)NN1C(=O)c2ccccc2C1=O (stereo not shown) — lower, -35.2%
- COc1cccc(N2C(=O)C3CCCN3C2=S)c1 (stereo not shown) — higher, 21.3%
- O=c1[nH]c(=O)n([C@H]2C[C@H](O)[C@@H](CO)O2)cc1I — higher, 17.6%
- CC(=O)Nc1ccc(NC(=O)C(C)OC(=O)/C=C/c2cn(-c3ccccc3)nc2-c2cccnc2)cc1 (stereo not shown) — higher, 6.73%
- Cc1ccc(CNC(=O)CCCCCNc2nc(=S)[nH]c3ccccc23)cc1 — lower, -15.7%
- COc1ccc(Cc2nnc(SCC(=O)NC3CCCCC3)n2C)cc1 — higher, 11.4%
- O=C(NCC1CCCO1)c1ccc2c(c1)N(Cc1ccc(F)cc1)CCS2 (stereo not shown) — lower, -20.6%
- CCOC(=O)CNC(=O)N1CCCC(Cc2ccccc2)(C(=O)OCC)C1 (stereo not shown) — higher, 6.26%
- Cc1nc2cc(NC(=O)N3c4ccccc4CC3C)ccc2o1 (stereo not shown) — lower, 0.791%
- O=C(CCNC(=O)c1ccccc1Cl)OCC(=O)c1ccccc1 — higher, 18.1%
- CSCC[C@H](NC(=O)C(C)Oc1ccc(Cl)cc1)c1nc2ccccc2[nH]1 (stereo partly shown) — lower, -7.16%
- O=C(Cc1cccs1)Nc1nc(-c2cccnc2)cs1 — lower, -3.68%
- CCCn1nc(NC(=O)c2ccccn2)c2cc3cc(C)ccc3nc21 — lower, -21%
- O=C(CCc1nc2ccccc2[nH]c1=O)N/N=C/c1ccccc1 — lower, -0.633%
- COc1cc(/C=C(\C#N)C(=O)NCC2CCCO2)cc(OC)c1OC (stereo not shown) — lower, 0.582%
- O=C(CO)N/N=C/c1ccc(Cl)cc1 — higher, 19.8%
- O=C(O)Cc1ccc2c(c1)N(S(=O)(=O)c1cccs1)CC(C(=O)O)O2 (stereo not shown) — higher, 22.7%
- COc1ccc(CNc2ccc3cn[nH]c3c2)c(OC)c1OC — lower, -6.79%
